Laboratory results taken from PubChem BioAssay AID1159554 (Broad Institute, 2015).
Among all 94,000 compounds or so, about 2,100 (2.2%) were called active. Inconclusive results, whose numbers are uncertain, are shown with a selection of clear calls. Rule as the data show it: active = activity change below about -80%; inconclusive = no clear call, values can overlap the other calls; inactive = above that.

assay: P. falciparum Dd2 growth inhibitors, primary screen, SYBR Green fluorescence, single dose replicates (AID 1159554); settings: 72 h, at 10 µM, active compounds read low

Activity change, active:
CCCN(C)C[C@@H]1OCCCC[C@H](C)Oc2ccc(NC(=O)Nc3ccc(C(F)(F)F)cc3)cc2C(=O)N([C@@H](C)CO)C[C@@H]1C -87.6%
O=C(Nc1ccccc1F)N1CC(=O)N2[C@H](CO)[C@@H](c3ccc(-c4ccccc4)cc3)[C@H]2C1 -83.8%
C[C@@H]1CN([C@@H](C)CO)C(=O)c2cccc(NC(=O)CCCCCC(=O)Nc3ccccc3N)c2O[C@H]1CN(C)Cc1ccc(-c2ccccc2)cc1 -90.7%
Cc1ccc(S(=O)(=O)N(C)C[C@@H]2OCCCC[C@@H](C)Oc3ccc(NC(=O)Nc4ccc5c(c4)OCO5)cc3C(=O)N([C@H](C)CO)C[C@@H]2C)cc1 -82.3%
OC[C@@H]1[C@H](c2ccc(C3=CCCCC3)cc2)[C@@H](CNC2CCCC2)N1CC1CC1 -91.5%
C[C@@H]1CN([C@H](C)CO)C(=O)c2cc(NC(=O)Nc3ccccc3)ccc2O[C@@H](C)CCCCO[C@H]1CN(C)Cc1ccc(C(F)(F)F)cc1 -85.7%
N#Cc1ccc(-c2ccc([C@@H]3[C@@H]4CN(C(=O)Nc5ccc6c(c5)OCO6)C[C@H]3N4)cc2)cc1 -86.6%

Activity change, inactive:
Cc1noc(C)c1S(=O)(=O)Nc1ccc2c(c1)C(=O)N([C@@H](C)CO)C[C@@H](C)[C@H](CN(C)Cc1ccc(C(F)(F)F)cc1)OCCCC[C@@H](C)O2 -46.3%
COc1ccc(NC(=O)N2CCCCN3[C@H](CO)[C@@H](c4ccc(C#Cc5ccccn5)cc4)[C@@H]3C2)cc1 -19.5%
CNC(=O)C[C@H]1CC[C@@H]2[C@H](COc3ccc(NC(=O)Cc4cccs4)cc3C(=O)N2C)O1 -4.01%
Cc1ccc(S(=O)(=O)N(C)C[C@H]2OCCCC[C@@H](C)Oc3ccc(NC(=O)NC4CCCCC4)cc3C(=O)N([C@H](C)CO)C[C@H]2C)cc1 -78.7%
COC(=O)N(C)C[C@H]1OCc2cn(nn2)CCCC(=O)N([C@@H](C)CO)C[C@H]1C -6.2%
N#C[C@H]1[C@H](c2ccccc2-c2ccccc2)[C@H](CO)N1C(=O)NC1CCCCC1 -8.66%
COc1ccc(CN(C)C[C@@H]2OCCCC[C@@H](C)Oc3ccc(NS(=O)(=O)c4ccc(C)cc4)cc3C(=O)N([C@H](C)CO)C[C@H]2C)cc1 -61.4%
C[C@@H]1CN([C@@H](C)CO)C(=O)c2cc(NS(=O)(=O)c3ccc(F)cc3)ccc2O[C@@H](C)CCCCO[C@@H]1CN(C)S(=O)(=O)c1ccc(Cl)cc1 -76%
CCCC(=O)Nc1ccc2c(c1)C(=O)N(C)[C@@H]1CC[C@H](CC(=O)NCCc3ccncc3)O[C@@H]1CO2 1.65%
CC(C)NC(=O)N1[C@H](CO)[C@H](c2ccc(C#CC3CCCC3)cc2)[C@@H]1C#N -40.1%
CN(C)CCCNC(=O)[C@H]1[C@H](CO)[C@H]2Cn3c(ccc(-c4cccc(F)c4)c3=O)[C@@H]1N2 39.6%
C[C@@H]1CN([C@@H](C)CO)C(=O)c2cc(NC(=O)Cc3ccccc3)ccc2O[C@@H](C)CCCCO[C@H]1CN(C)Cc1ccccc1 -5.2%
CCN1[C@H](C(=O)NC2CCC2)[C@@H](CO)[C@@H]2Cn3c(ccc(-c4ccc(F)cc4)c3=O)[C@@H]21 20.5%
CC(=O)N(C)C[C@@H]1Oc2ncc(-c3ccc(C)cc3)cc2C(=O)N([C@H](C)CO)C[C@@H]1C 22.3%
C[C@@H]1CN([C@H](C)CO)C(=O)c2cc(C#Cc3cccc(F)c3)cnc2O[C@@H]1CN(C)C(=O)C1CCOCC1 -1.25%

Activity change, inconclusive:
C[C@@H]1CCCCO[C@H](CN(C)Cc2ccc3c(c2)OCO3)[C@H](C)CN([C@H](C)CO)C(=O)c2cc(NC(=O)C3CCCCC3)ccc2O1 -80.6%
CCCNC(=O)N1CC2(CCN(CC3CCCCC3)CC2)c2c(n(C)c3cc(OC)ccc23)[C@@H]1CO -80.7%
C[C@@H]1CCCCO[C@@H](CN(C)S(=O)(=O)c2cccs2)[C@H](C)CN([C@H](C)CO)C(=O)c2cc(NC(=O)NC3CCCCC3)ccc2O1 -80.2%
CN(C)C(=O)c1cccc(-c2cccc(-c3nc(C(=O)NCc4ccccc4)cc4c3[C@@H](CCO)N([S@](=O)C(C)(C)C)C4)c2)c1 -81.3%
CCCc1cn([C@H]2C[C@@H]3O[C@@H](CO)CC[C@@H]3O[C@@H]2CCc2ccc(-c3ccc(OC)cc3)cc2)nn1 -81%
CCCNC(=O)N1[C@H](C#N)[C@H](c2ccc(C3=CCCCC3)cc2)[C@@H]1CO -84.3%
Cc1ccc(S(=O)(=O)N(C)C[C@@H]2OCCCC[C@H](C)Oc3ccc(N(C)C)cc3C(=O)N([C@H](C)CO)C[C@H]2C)cc1 -80.8%
CCCC#Cc1cnc2c(c1)C(=O)N([C@H](C)CO)C[C@@H](C)[C@H](CN(C)C(=O)Nc1ccccc1OC)O2 -80.5%
C[C@@H]1CCCCO[C@H](CN(C)S(=O)(=O)c2ccccc2)[C@H](C)CN([C@@H](C)CO)C(=O)c2cc(NC(=O)Nc3ccc(C(F)(F)F)cc3)ccc2O1 -80.5%
O=C(C1CCCC1)N1CC(=O)N2[C@H](CO)[C@@H](c3ccc(C#CCc4ccccc4)cc3)[C@@H]2C1 -80%
C[C@H](CO)N1C[C@H](C)[C@@H](CN(C)Cc2cccc(C(F)(F)F)c2)OCc2ccccc2-c2c(n(C)c3ccccc23)C1=O -80.6%
C[C@H](CO)N1C[C@H](C)[C@H](CN(C)C(=O)CN(C)C)Oc2cc(C#Cc3ccccc3)ccc2S1(=O)=O -80.2%
C[C@@H]1CCCCO[C@@H](CN(C)Cc2ccc(C(=O)Nc3ccccc3N)cc2)[C@@H](C)CN([C@H](C)CO)C(=O)c2cc(NS(=O)(=O)c3ccc(Cl)cc3)ccc2O1 -81.1%
